# Experimental data: PubChem BioAssay AID504832 (National Center for Advancing Translational Sciences (NCATS), 2011)
# The whole screen tested about 310,000 compounds, of which about 18,000 (5.8%) were called active. The inconclusive results got no clear call from the source; some entries with a clear call stand among them for comparison. The call rests on the fitted dose curve; in most records, active means well fitted inhibition curve with a large enough effect; inconclusive means small, poorly fitted or top-dose-only effect, or another doubt; inactive means no such curve, though single readings can be large or run the other way. No potency is given beside an inconclusive call; the fits are too rough.
# Assay: Primary qHTS for delayed death inhibitors of the malarial parasite plastid, 48 hour incubation
# Settings: P. falciparum luciferase growth in erythrocytes; series mostly up to 28.7 µM
# Summary of the method: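 Cell-based growth assay: transgenic P. falciparum expressing firefly luciferase, cultured in red cells within RPMI 1640 containing 0.5% w/v Albumax, 24 mM bicarbonate and gentamycin. A drop in luciferase activity indicates inhibition.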
# Potency means the concentration at half of the fitted maximal effect; tags describe the fitted curve by direction and shape.
row,SMILES,Potency
1,c1cncc(-c2nc(-c3ccc4c(c3)OCO4)cs2)c1,inactive
2,Cc1nc2ccccc2c(=O)n1NCc1cccs1,"inconclusive [inhibitor, single point]"
3,Cc1cc(C)c(S(=O)(=O)N2CCCCC2CCNC(=O)C(=O)NCc2cccnc2)c(C)c1 (stereo not drawn),"inconclusive [inhibitor, partial curve, poor fit]"
4,Cc1ccc(CNC(=O)CCS(=O)(=O)c2cc(Br)cc3c2N(C(=O)C2CC2)CC3)o1,active: 2.62 µM
5,O=C(COC(=O)/C=C/c1ccc(OC(F)F)cc1)NCc1cccs1,inactive
6,CC(C)(C)OC(=O)CN1C(=O)C(Sc2n[nH]c(-c3ccccc3)n2)CCc2ccccc21 (stereo not drawn),"inconclusive [inhibitor, full curve]"
7,Cc1ccc(OCC(O)CNC(C)c2ccccc2)cc1C (stereo not drawn),"inconclusive [inhibitor, single point]"
8,C=CCn1cc(C(=O)NCCN(CC)CC)c(=O)c2cc(S(=O)(=O)N3CCCCCC3)ccc21,active: 10.4 µM
9,COc1ccc(C2(C)NC(=O)N(CC(=O)Nc3ccc(Br)cc3F)C2=O)cc1OC (stereo not drawn),"inconclusive [inhibitor, full curve]"
10,COc1ccc(C(CNC(=O)c2oc3ccc(Cl)cc3c2C)N2CCCCC2)cc1 (stereo not drawn),"inconclusive [inhibitor, single point]"
11,CCOc1cc(Br)ccc1S(=O)(=O)N1CCC(C(N)=O)CC1,"inconclusive [inhibitor, single point]"
12,CC(C)c1ccc(NC(=O)NCc2ccc(F)cc2)cc1,"inconclusive [inhibitor, single point]"
13,COc1ccc(-c2cc(C(F)(F)F)n3nc(C(=O)Nc4cc(C)on4)cc3n2)cc1OC,"inconclusive [inhibitor, partial curve, poor fit]"
14,COc1ccc(-c2noc(N3CCC(C(=O)Nc4cc(OC)ccc4OC)CC3)n2)cc1,"inconclusive [inhibitor, partial curve, poor fit]"
15,COc1cc2oc3ccccc3c2cc1N(CC(=O)N(C)C)S(=O)(=O)c1ccccc1,"inconclusive [inhibitor, single point]"
16,O=C(c1ccc(N2CN(C(=O)c3ccco3)c3nc4ccccc4nc32)cc1)N1CCOCC1,"inconclusive [inhibitor, single point]"
17,CCc1ccc(OCc2ccc(C(=O)O)o2)cc1,inactive
18,O=C(c1ccc(S(=O)(=O)N2CCCC2)cc1)N1CCCCCC1,"inconclusive [inhibitor, full curve, poor fit]"
19,O=C(Nc1ccccc1)OC(CN1CCCCC1)C(F)(F)F (stereo not drawn),inactive
20,S=c1nc(-c2ccccc2)[nH]c2ccccc12,inactive
21,O=C1C(=O)N(CCS(=O)(=O)c2ccccc2)c2ccc(F)cc21,"inconclusive [inhibitor, single point]"
22,O=[N+]([O-])c1cccc(Cl)c1NCCNS(=O)(=O)c1ccccc1,inactive
23,COc1cccc(-n2c(C)nnc2SCC(=O)Nc2ccccc2N2CCOCC2)c1,"inconclusive [inhibitor, single point]"

row,SMILES,Potency
1,COc1ccc(OC)c(-c2csc(N(Cc3ccco3)C(=O)c3cccs3)n2)c1,active: 9.28 µM
2,COc1ccc(-c2cc(C)no2)cc1S(=O)(=O)N1CCOc2ccc(C)cc21,"inconclusive [inhibitor, single point]"
3,Cn1c(SCc2cccc(Br)c2)nnc1-c1ccccn1,inactive
4,CC(C)CCNC(=S)Nc1ccc2nc3n(c(=O)c2c1)CCCCC3,"inconclusive [inhibitor, single point]"
5,Cc1ccc(N2C(=O)CC(N3CCSCC3)C2=O)c(C)c1 (stereo not drawn),"inconclusive [inhibitor, full curve]"
6,COc1ccc(-c2nsc(C(=O)N(c3ccc(F)cc3)C(C(=O)NC3CCCC3)c3ccc(OC)cc3)c2N)cc1 (stereo not drawn),active: 2.62 µM
7,CCc1cccc(NC(=O)CSCc2nc3sc(C)c(C)c3c(=O)[nH]2)c1,"inconclusive [inhibitor, single point]"
8,COc1ccc(NC(=O)CN(C)C(=O)CCCc2c[nH]c3ccccc23)cc1,"inconclusive [inhibitor, partial curve, poor fit]"
9,Cc1c(Cc2ccccc2)c(NCCN(C)C)n2c(nc3ccccc32)c1C#N,"inconclusive [inhibitor, partial curve]"
10,COc1ccc(-n2nc(C(=O)NCC(=O)NCCc3ccc(OC)c(OC)c3)c3ccccc3c2=O)cc1Cl,"inconclusive [inhibitor, single point]"
11,CC(C)C1(CCNC(=O)c2cccs2)CCOC(C)(C)C1 (stereo not drawn),"inconclusive [inhibitor, partial curve]"
12,Cc1ccc(NC(=O)COC(=O)c2ccco2)cc1,inactive
13,COc1ccccc1C(CNC(=O)c1cccc(S(=O)(=O)Nc2ccc(C)cc2)c1)N(C)C (stereo not drawn),"inconclusive [inhibitor, single point]"
14,COc1ccc(CCNC(=O)Cn2ccc3c(OC)cccc3c2=O)cc1OC,inactive
15,O=C(Nc1ccc(OC(F)(F)F)cc1)C1CCCN(S(=O)(=O)c2cccnc2)C1 (stereo not drawn),"inconclusive [inhibitor, partial curve, poor fit]"
16,CC(=O)c1ccc(Oc2ccc(C(C)=O)cc2)cc1,inactive
17,O=C(COc1ccccc1Cl)NC(=S)Nc1ccc(CN2CCOCC2)cc1,inactive
18,O=C(CSc1ccc2c(c1)OCCO2)N1CCN(c2ccccc2)CC1,inactive
19,COc1ccc(CCNC(=O)CSc2cn(Cc3ccccc3)c3ccccc23)cc1OC,"inconclusive [inhibitor, single point]"
20,COc1ccccc1N(C)S(=O)(=O)c1ccc(C(=O)OCC(=O)Nc2ccc(C(N)=O)cc2)cc1,"inconclusive [inhibitor, single point]"
21,CC(C)(C)c1ccc(C2=NC(=O)C(CC(=O)O)S2)cc1 (stereo not drawn),active: 2.62 µM
22,Cc1ccc(S(=O)(=O)Nc2ccccc2-c2ccccc2NS(=O)(=O)c2ccc(C)cc2)cc1,"inconclusive [inhibitor, partial curve, poor fit]"
23,O=C(CN1CCCCCC1)NN(Cc1ccccc1)c1ccccc1,inactive

row,SMILES,Potency
1,COc1cc(CNC(C)c2ccccc2)cc(Br)c1OCc1ccccc1 (stereo not drawn),"inconclusive [inhibitor, single point]"
2,O=c1c(-c2cccc(Cl)c2)c[nH]n1-c1ccccc1,active: 3.7 µM
3,Cc1c(/N=C/c2ccco2)n(Cc2ccccc2)c2ccccc12,"inconclusive [inhibitor, single point]"
4,CC(=O)C12CCCCC1CC1[C@@H]3CC(C)C4=CC(=O)CC[C@]4(C)C3CC[C@@]12C (stereo partly drawn),"inconclusive [inhibitor, partial curve, poor fit]"
5,O=C(NCc1cccnc1)/C(=C/c1ccc(-c2cccc(C(F)(F)F)c2)o1)NC(=O)c1ccccc1,inactive
6,O=C(NC1CC1)C1CCN(C2CCN(C(=O)c3ccc4cccc(F)c4n3)CC2)CC1,inactive
7,CCOC(=O)C1=CN(c2cccc(F)c2)C=C(C(=O)OCC)C1c1cc(OC)c(O)c([N+](=O)[O-])c1,active: 10.4 µM
8,CCOC(=O)c1sc(NC(=O)CSc2nnc(C)s2)c(C(=O)OCC)c1C,active: 9.28 µM
9,CCN(CC)CCCNC(=O)c1oc2ccc(S(=O)(=O)N3CC(C)CC(C)C3)cc2c1C (stereo not drawn),"inconclusive [inhibitor, single point]"
10,CCCCP(=O)(CCCC)Cc1ccccc1O,active: 14.7 µM
11,O=C(NCc1ccccc1)[C@H]1C[C@@H]1[C@H](NP(=O)(c1ccccc1)c1ccccc1)c1ccccc1,"inconclusive [inhibitor, full curve, poor fit]"
12,CCN(CC)CCCC(C)Nc1cc(/C=C/c2ccccc2Cl)nc2cc(Cl)ccc12 (stereo not drawn),active: 0.478 µM
13,COc1cccc(NC(=O)CN(C)C(C)C(=O)Nc2cc([N+](=O)[O-])ccc2Cl)c1 (stereo not drawn),inactive
14,CCCCn1c2ccccc2c2nnc(SCC(=O)NC3=NN=C(c4ccccc4)CS3)nc21,active: 2.94 µM
15,Cc1cc(C)n(C(=O)c2ccc([N+](=O)[O-])cc2Cl)n1,inactive
16,Cc1ccc(C(=O)c2c3ccccc3[n+]([O-])n2CCC(N)=O)cc1,inactive
17,COc1ccc(N2CCN(C(=O)Cc3coc4cc(C)ccc34)CC2)cc1,"inconclusive [inhibitor, partial curve, poor fit]"
18,O=C(CCCCCn1c(=O)[nH]c2ccsc2c1=O)NCc1ccc2c(c1)OCO2,"inconclusive [inhibitor, single point]"
19,COc1ccc(CNC(=O)C(=O)NCCC2CCCCN2S(=O)(=O)c2cccs2)cc1 (stereo not drawn),"inconclusive [inhibitor, partial curve, poor fit]"
20,CN(C)C(=O)/C(=C/c1ccc(-c2cccc([N+](=O)[O-])c2)o1)NC(=O)c1ccccc1,"inconclusive [inhibitor, single point]"
21,O=C(Oc1cccc(N2C(=O)C3C4c5ccccc5C(c5ccccc54)C3C2=O)c1)c1ccco1 (stereo not drawn),"inconclusive [inhibitor, single point]"
22,CN(C)C(=O)c1cccc(-c2csc(N3CCC(C(N)=O)CC3)n2)c1,"inconclusive [activator, partial curve]"
